The other results are listed elsewhere or left out.
How the values were obtained:
Assay in all cases: glycan array binding signal (z-score within array); higher = stronger binding
Conditions in all cases: glycan notation: IUPAC condensed, linker removed
[1] = molecular target: Fuc(a1-3)[Gal3S(b1-4)]GlcNAc
Method in brief: (§1)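 The binding signal is a Z-score computed within each array. Data were drawn from 3228 arrays in the Consortium for Functional Glycomics database, restricted to those with a known protein sequence. Scores were averaged over arrays of the same protein sequence at different concentrations or buffers, and over linkers, and negative values can be taken as non-binding.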

[2] = molecular target: Fuc(a1-3)[Gal3S(b1-4)]GlcNAc6S
Method in brief: as §1

[3] = molecular target: Fuc(a1-3)[GalNAc(b1-4)]Gal(b1-4)GlcNAc
Method in brief: as §1

[4] = molecular target: Fuc(a1-3)[GalNAc(b1-4)]GlcNAc
Method in brief: as §1

[5] = molecular target: Fuc(a1-3)[GalNAc(b1-4)]GlcNAc6S
Method in brief: as §1

[6] = molecular target: Fuc(a1-3)[GalNAc3S(b1-4)]GlcNAc
Method in brief: as §1

Fuc(a1-4)GlcNAc = molecular target: Fuc(a1-4)GlcNAc
Method in brief: as §1

Fuc(b1-3)GlcNAc = molecular target: Fuc(b1-3)GlcNAc
Method in brief: as §1

Gal(a1-2)Gal = molecular target: Gal(a1-2)Gal
Method in brief: as §1

Gal(a1-3)Gal = molecular target: Gal(a1-3)Gal
Method in brief: as §1

Gal(a1-3)Gal(b1-3)Glc = molecular target: Gal(a1-3)Gal(b1-3)Glc
Method in brief: as §1

Gal(a1-3)Gal(b1-3)GlcNAc = molecular target: Gal(a1-3)Gal(b1-3)GlcNAc
Method in brief: as §1

[7] = molecular target: Gal(a1-3)Gal(b1-3)GlcNAc(b1-2)Man
Method in brief: as §1

[8] = molecular target: Gal(a1-3)Gal(b1-3)GlcNAc(b1-2)Man(a1-3)[Gal(a1-3)Gal(b1-3)GlcNAc(b1-2)Man(a1-6)]Man(b1-4)GlcNAc(b1-4)GlcNAc
Method in brief: as §1

[9] = molecular target: Gal(a1-3)Gal(b1-3)GlcNAc(b1-3)GalNAc
Method in brief: as §1

[10] = molecular target: Gal(a1-3)Gal(b1-3)GlcNAc(b1-6)GalNAc
Method in brief: as §1

[11] = molecular target: Gal(a1-3)Gal(b1-3)[Fuc(a1-4)]GlcNAc(b1-2)Man(a1-3)[Gal(a1-3)Gal(b1-3)[Fuc(a1-4)]GlcNAc(b1-2)Man(a1-6)]Man(b1-4)GlcNAc(b1-4)GlcNAc
Method in brief: as §1

Gal(a1-3)Gal(b1-4)Glc = molecular target: Gal(a1-3)Gal(b1-4)Glc
Method in brief: as §1

Gal(a1-3)Gal(b1-4)GlcNAc = molecular target: Gal(a1-3)Gal(b1-4)GlcNAc
Method in brief: as §1

[12] = molecular target: Gal(a1-3)Gal(b1-4)GlcNAc(b1-2)Man
Method in brief: as §1

[13] = molecular target: Gal(a1-3)Gal(b1-4)GlcNAc(b1-2)Man(a1-3)[Gal(a1-3)Gal(b1-4)GlcNAc(b1-2)Man(a1-6)]Man(b1-4)GlcNAc(b1-4)GlcNAc
Method in brief: as §1

[14] = molecular target: Gal(a1-3)Gal(b1-4)GlcNAc(b1-3)GalNAc
Method in brief: as §1

[15] = molecular target: Gal(a1-3)Gal(b1-4)GlcNAc(b1-6)GalNAc
Method in brief: as §1

[16] = molecular target: Gal(a1-3)Gal(b1-4)[Fuc(a1-3)]GalNAc
Method in brief: as §1

[17] = molecular target: Gal(a1-3)Gal(b1-4)[Fuc(a1-3)]GlcNAc
Method in brief: as §1

[18] = molecular target: Gal(a1-3)Gal(b1-4)[Fuc(a1-3)]GlcNAc(b1-2)Man(a1-3)[Gal(a1-3)Gal(b1-4)[Fuc(a1-3)]GlcNAc(b1-2)Man(a1-6)]Man(b1-4)GlcNAc(b1-4)GlcNAc
Method in brief: as §1

Gal(a1-3)GalNAc = molecular target: Gal(a1-3)GalNAc
Method in brief: as §1

Gal(a1-3)GlcNAc = molecular target: Gal(a1-3)GlcNAc
Method in brief: as §1

[19] = molecular target: Gal(a1-3)[Gal(a1-4)]Gal(b1-4)GlcNAc
Method in brief: as §1

[20] = molecular target: Gal(a1-4)Gal(b1-3)GlcNAc(b1-2)Man(a1-3)[Gal(a1-4)Gal(b1-3)GlcNAc(b1-2)Man(a1-6)]Man(b1-4)GlcNAc(b1-4)GlcNAc
Method in brief: as §1

Gal(a1-4)Gal(b1-4)Gal = molecular target: Gal(a1-4)Gal(b1-4)Gal
Method in brief: as §1

Gal(a1-4)Gal(b1-4)GalNAc = molecular target: Gal(a1-4)Gal(b1-4)GalNAc
Method in brief: as §1

Gal(a1-4)Gal(b1-4)Glc = molecular target: Gal(a1-4)Gal(b1-4)Glc
Method in brief: as §1

Gal(a1-4)Gal(b1-4)GlcNAc = molecular target: Gal(a1-4)Gal(b1-4)GlcNAc
Method in brief: as §1

[21] = molecular target: Gal(a1-4)Gal(b1-4)GlcNAc(b1-2)Man(a1-3)[Gal(a1-4)Gal(b1-4)GlcNAc(b1-2)Man(a1-6)]Man(b1-4)GlcNAc(b1-4)GlcNAc
Method in brief: as §1

[22] = molecular target: Gal(a1-4)Gal(b1-4)GlcNAc(b1-3)Gal(b1-4)Glc
Method in brief: as §1

Gal(a1-4)GlcNAc = molecular target: Gal(a1-4)GlcNAc
Method in brief: as §1

Gal(a1-6)Glc = molecular target: Gal(a1-6)Glc
Method in brief: as §1

Gal(b1-2)Gal = molecular target: Gal(b1-2)Gal
Method in brief: as §1

Gal(b1-3)Gal = molecular target: Gal(b1-3)Gal
Method in brief: as §1

Gal(b1-3)Gal(b1-4)GlcNAc = molecular target: Gal(b1-3)Gal(b1-4)GlcNAc
Method in brief: as §1

[23] = molecular target: Gal(b1-3)Gal(b1-4)GlcNAc(b1-2)Man(a1-3)[Gal(b1-3)Gal(b1-4)GlcNAc(b1-2)Man(a1-6)]Man(b1-4)GlcNAc(b1-4)GlcNAc
Method in brief: as §1

Gal(b1-3)GalNAc = molecular target: Gal(b1-3)GalNAc
Method in brief: as §1

[24] = molecular target: Gal(b1-3)GalNAc(a1-3)[Fuc(a1-2)]Gal(b1-4)Glc
Method in brief: as §1

[25] = molecular target: Gal(b1-3)GalNAc(a1-3)[Fuc(a1-2)]Gal(b1-4)GlcNAc
Method in brief: as §1

B1: Gal 7 (Homo sapiens) (protein)
chain: MSNVPHKSSLPEGIRPGTVLRIRGLVPPNASRFHVNLLCGEEGGSDAALHFNPRLDTSEVVFNSKEGGSWGREERGPGVPFGRGQPFEVLIIASDDGFKAVVGDAQYHHFRHRLPLARVRLVEVGGDVQLDSVRIF
Which results are given for B1?
glycan array binding signal (z-score) [1]: -0.295; glycan array binding signal (z-score) [2]: -0.093; glycan array binding signal (z-score) [3]: -0.292; glycan array binding signal (z-score) [4]: -0.051; glycan array binding signal (z-score) [5]: -0.146; glycan array binding signal (z-score) [6]: 0.008; glycan array binding signal (z-score) (Fuc(a1-4)GlcNAc): -0.324; glycan array binding signal (z-score) (Fuc(b1-3)GlcNAc): -0.303; glycan array binding signal (z-score) (Gal(a1-2)Gal): -0.321; glycan array binding signal (z-score) (Gal(a1-3)Gal): -0.307; glycan array binding signal (z-score) (Gal(a1-3)Gal(b1-3)Glc): 1.04; glycan array binding signal (z-score) (Gal(a1-3)Gal(b1-3)GlcNAc): 0.672; glycan array binding signal (z-score) [7]: -0.242; glycan array binding signal (z-score) [8]: 0.227; glycan array binding signal (z-score) [9]: 0.002; glycan array binding signal (z-score) [10]: -0.186; glycan array binding signal (z-score) [11]: 0.347; glycan array binding signal (z-score) (Gal(a1-3)Gal(b1-4)Glc): -0.304; glycan array binding signal (z-score) (Gal(a1-3)Gal(b1-4)GlcNAc): 0.303; glycan array binding signal (z-score) [12]: -0.282; glycan array binding signal (z-score) [13]: -0.245; glycan array binding signal (z-score) [14]: -0.281; glycan array binding signal (z-score) [15]: -0.147; glycan array binding signal (z-score) [16]: -0.351; glycan array binding signal (z-score) [17]: -0.242; glycan array binding signal (z-score) [18]: 0.003; glycan array binding signal (z-score) (Gal(a1-3)GalNAc): -0.237; glycan array binding signal (z-score) (Gal(a1-3)GlcNAc): -0.34; glycan array binding signal (z-score) [19]: -0.311; glycan array binding signal (z-score) [20]: -0.011; glycan array binding signal (z-score) (Gal(a1-4)Gal(b1-4)Gal): -0.366; glycan array binding signal (z-score) (Gal(a1-4)Gal(b1-4)GalNAc): -0.355; glycan array binding signal (z-score) (Gal(a1-4)Gal(b1-4)Glc): -0.185; glycan array binding signal (z-score) (Gal(a1-4)Gal(b1-4)GlcNAc): -0.251; glycan array binding signal (z-score) [21]: 0.477; glycan array binding signal (z-score) [22]: 0.016; glycan array binding signal (z-score) (Gal(a1-4)GlcNAc): -0.289; glycan array binding signal (z-score) (Gal(a1-6)Glc): -0.293; glycan array binding signal (z-score) (Gal(b1-2)Gal): -0.316; glycan array binding signal (z-score) (Gal(b1-3)Gal): -0.328; glycan array binding signal (z-score) (Gal(b1-3)Gal(b1-4)GlcNAc): -0.341; glycan array binding signal (z-score) [23]: 0.71; glycan array binding signal (z-score) (Gal(b1-3)GalNAc): -0.006; glycan array binding signal (z-score) [24]: -0.188; glycan array binding signal (z-score) [25]: -0.303
